± gives the uncertainty stated by the source. Whole data set: some 9,900 compounds, median “viability index relative to DMSO control” near 1, cut for the lowest 2% near 0.85. The list shows a part of the results.

For 35 compounds, viability index results are on record in the supplement of paper PMC4723716.

The test system of the experiment is Plasmodium falciparum NF54 stage V gametocytes. Briefly: viability index relative to DMSO control (fraction); higher = less gametocyte killing. Conditions: 2.5 µM, incubation time: 72 h. A digest of the protocol:
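Gametocytes (P. falciparum NF54, stage V) were treated with compound at 2.5 µM for 72 hr at 37°C in low oxygen, in serum-free medium at 0.75% gametocytemia and 1.25% hematocrit. Counts of 20–70 µm2 red particles, taken from one field per well after MitoTracker Red CMXRos with saponin, were divided by the plate mean of solvent-only wells. This ratio is the viability index.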

[1] abbreviates: library set: Broad Institute DOS.

As to `O=C(C[C@@H]1CC[C@@H](NC(=O)c2cccnc2)[C@@H](CO)O1)NCc1ccc(Cl)c(Cl)c1`, the viability index under setting [1] was 0.965 ± 0.045.

With `C[C@H]1CN([C@@H](C)CO)C(=O)c2c(c3ccccc3n2C)-c2ccccc2CO[C@@H]1CN(C)C(=O)Nc1cccc(C(F)(F)F)c1`, the viability index (library set: Broad Institute Blood Stage) stood at 0.871 ± 0.045.

Compound `COc1ccccc1NC(=O)N1C[C@@H](O)COC[C@H]2O[C@@H](CC(=O)NCCc3ccncc3)CC[C@@H]21` returned a viability index under setting [1] of 1.07 ± 0.0041.

On to `CC(=O)N(Cc1cccc(F)c1)C[C@H]1[C@@H](c2ccccc2)[C@@H](CO)N1C(C)=O`, for which the viability index under setting [1] came to 0.98 ± 0.075.

With `C/C=C/c1ccc([C@@H]2[C@@H](CO)N(C(C)=O)[C@H]2CNC(=O)c2ccccc2)cc1`, the viability index under setting [1] was determined as 1 ± 0.024.

Under setting [1], `O=C1CNC[C@H]2[C@@H](c3ccc(C#Cc4cccnc4)cc3)[C@@H](CO)N12` came in with a viability index of 1.01 ± 0.059.

Turning to `COCC(=O)N1CC2(C1)[C@@H](c1ccccc1)[C@@H](CO)N2CCC(F)(F)F`, the viability index under setting [1] was determined as 1.1 ± 0.17.

`CO[C@H]1CN(C)C(=O)c2ccc(NS(=O)(=O)CC(F)(F)F)cc2OC[C@@H](C)N(Cc2nccs2)C[C@H]1C` came in with a viability index under setting [1] of 1.07 ± 0.14.

`CC(C)C(=O)Nc1ccc2c(c1)C(=O)N(C)[C@H]1CC[C@H](CC(=O)NCCc3ccccc3)O[C@H]1CO2`: under setting [1], the viability index was determined as 1.09 ± 0.053.

On to `CN(C)CCCNC(=O)C[C@H]1CC[C@H]2[C@@H](COC[C@@H](O)CN2CC2CC2)O1`, for which the viability index under setting [1] came to 1.02 ± 0.053.

`CO[C@@H]1CN(C)C(=O)c2cc(NC(=O)NC3CCCCC3)ccc2OC[C@@H](C)N(CC2CCOCC2)C[C@H]1C` yielded a viability index under setting [1] of 1.08 ± 0.084.

With `COc1cccc(C(=O)Nc2ccc3c(c2)C(=O)N(C)[C@H]2CC[C@@H](CC(=O)N[C@@H](C)c4ccccc4)O[C@H]2CO3)c1`, the viability index under setting [1] came to 1.1 ± 0.12.

Compound `Cc1cc(C(=O)Nc2cccc3c2O[C@@H](CN(C)C)[C@@H](C)CN([C@H](C)CO)C3=O)n(C)n1` registered a viability index under setting [1] of 1.08 ± 0.027.

As to `C[C@H]1CN([C@@H](C)CO)S(=O)(=O)c2ccc(-c3ccncc3)cc2O[C@H]1CN(C)S(C)(=O)=O`, under setting [1], the viability index was determined as 1.023 ± 0.0035.

In turn, `C[C@@H]1COCn2nncc2CC[C@H](Cc2cccc(Cl)c2)C(=O)N1` came in with a viability index under setting [1] of 1.09 ± 0.051.

As to `O=C1C[C@@H](c2ccccc2)C(=O)N[C@H](c2ccc3c(c2)OCO3)C/C=C\C[C@@H](c2ccc(F)cc2)N1`, the viability index under setting [1] was found to be 1.07 ± 0.063.

Regarding `CCCC#Cc1ccc2c(c1)[C@@H]1[C@@H](CCN1Cc1cncnc1)[C@@H](CO)N2`, the viability index under setting [1] stood at 1.048 ± 0.0064.

As for `CCCNC(=O)N1CC(=O)N2[C@H](CO)[C@@H](c3ccc(-c4ccc(F)cc4)cc3)[C@@H]2C1`, the viability index under setting [1] is 1.03 ± 0.013.

On to `CC(=O)N1CCCCN2[C@H](CO)[C@@H](c3ccc(-c4ccccc4)cc3)[C@H]2C1`, for which the viability index under setting [1] was 0.985 ± 0.059.

With `CCS(=O)(=O)N(C)C[C@@H]1N[C@H](CO)[C@@H]1c1ccc(C2=CCCCC2)cc1`, the viability index under setting [1] amounted to 0.947 ± 0.079.

Take `COc1ccc(NC(=O)Nc2ccc3c(c2)[C@H]2C[C@H](CC(=O)NCC(F)(F)F)O[C@@H](CO)[C@H]2O3)cc1`: the viability index under setting [1] was found to be 0.986 ± 0.012.

The compound `O=C(C[C@@H]1CC[C@H]2[C@@H](COC[C@H](O)CN2S(=O)(=O)c2ccccc2)O1)NCC1CCCCC1` yielded a viability index under setting [1] of 1.005 ± 0.0034.

Take `COc1ccccc1-c1cnc2c(c1)C(=O)N([C@@H](C)CO)C[C@@H](C)[C@@H](CN(C)C(=O)CC1CC1)O2`: the viability index under setting [1] amounted to 1.05 ± 0.079.

Regarding `C[C@@H]1CCCCO[C@H](CN(C)C(=O)c2ccncc2)[C@H](C)CN([C@H](C)CO)C(=O)c2cc(NS(=O)(=O)c3cccs3)ccc2O1`, the viability index under setting [1] was 1.09 ± 0.059.

As to `COc1ccc(CNC(=O)C[C@@H]2C[C@H]3c4cc(N(C)C)ccc4O[C@H]3[C@@H](CO)O2)cc1`, the viability index under setting [1] turned out to be 1.12 ± 0.03.

For `COc1ccc(NC(=O)N[C@@H]2CC[C@H](CCNC(=O)CN3CCOCC3)O[C@@H]2CO)cc1`, the viability index under setting [1] stood at 0.894 ± 0.025.

Turning to `COc1cccc(-c2ccc3c(c2)[C@H]2[C@H](CCN2S(=O)(=O)C2=NC(C)C=N2)[C@@H](CO)N3C)c1` (stereo not given in full), under setting [1], the viability index is 1.06 ± 0.021.

On to `O=C(C[C@@H]1CC[C@H](NC(=O)C2CC2)[C@H](CO)O1)Nc1ccccc1`, for which the viability index under setting [1] worked out at 0.916 ± 0.036.

Consider `Cc1noc(C)c1S(=O)(=O)N(C)C[C@@H]1Oc2c(NS(=O)(=O)c3cn(C)cn3)cccc2C(=O)N([C@@H](C)CO)C[C@@H]1C`, for which the viability index under setting [1] is 1 ± 0.028.

In the case of `CCS(=O)(=O)Nc1ccc2c(c1)C(=O)N(C)[C@@H]1CC[C@H](CC(=O)NCc3ccc(OC)cc3)O[C@H]1CO2`, the viability index under setting [1] is 1.01 ± 0.078.

`COCC(=O)Nc1ccc2c(c1)[C@H]1C[C@@H](CC(=O)N3CCOCC3)O[C@H](CO)[C@H]1O2`: the viability index under setting [1] stood at 1.07 ± 0.037.

As to `C[C@@H]1CN([C@H](C)CO)C(=O)c2cc(NS(=O)(=O)c3cn(C)cn3)ccc2O[C@@H](C)CCCCO[C@H]1CN(C)Cc1ccc2c(c1)OCO2`, the viability index under setting [1] is 1.09 ± 0.047.

Consider `CN(C)C(=O)c1cccc(-c2ccc3n(c2=O)C[C@@H]2[C@@H](CO)[C@H](C(=O)NCC4CC4)N[C@H]32)c1`, for which the viability index under setting [1] was 0.973 ± 0.024.

As to `CN(C)C(=O)c1ccc(-c2ccc([C@H]3[C@H](C#N)N(C(=O)C4CC4)[C@H]3CO)cc2)cc1`, under setting [1], the viability index worked out at 1.14 ± 0.039.

Under setting [1], `COc1ccc2c3c([C@H](CO)N(Cc4ccc(Cl)cc4)C[C@]33CCN(CC4CC4)CC3)n(C)c2c1` yielded a viability index of 0.901 ± 0.069.
